Experimental findings from PMC10384177 are described below.

These are yes or no findings as the source states them, for the method shown. Some entries that bind do so weakly or less than the wild type. Sequences can lack the tags named with a protein.

T1: PIA1 (clade F PP2C protein phosphatase), BD-PIA1 two-hybrid fusion (Arabidopsis thaliana) (UniProt Q9SIU8)
T1 sequence: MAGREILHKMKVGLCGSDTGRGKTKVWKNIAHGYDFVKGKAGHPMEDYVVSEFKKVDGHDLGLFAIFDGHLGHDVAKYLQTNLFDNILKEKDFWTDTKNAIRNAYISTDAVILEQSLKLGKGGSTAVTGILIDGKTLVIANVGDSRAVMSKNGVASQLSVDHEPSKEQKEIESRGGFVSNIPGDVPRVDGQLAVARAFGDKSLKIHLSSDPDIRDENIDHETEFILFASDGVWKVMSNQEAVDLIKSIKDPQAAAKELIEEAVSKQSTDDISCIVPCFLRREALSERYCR

B1: SnRK2.10, two-hybrid fusion (enzyme, UniProt Q9C958 1-361)
chain: MDKYELVKDIGAGNFGVARLMRVKNSKELVAMKYIERGPKIDENVAREIINHRSLRHPNIIRFKEVVLTPTHIAIAMEYAAGGELFERICSAGRFSEDEARYFFQQLISGVSYCHAMQICHRDLKLENTLLDGSPAPRLKICDFGYSKSSLLHSMPKSTVGTPAYIAPEVLSRGEYDGKMADVWSCGVTLYVMLVGAYPFEDQEDPKNFKKTIQRIMAVKYKIPDYVHISQDCKHLLSRIFVTNSNKRITIGDIKKHPWFLKNLPRELTEIAQAAYFRKENPTFSLQSVEEIMKIVEEAKTPARVSRSIGAFGWGGGEDAEGKEEDAEEEVEEVEEEEDEEDEYDKTVKQVHASMGEVRVS
B2: RCAR13, two-hybrid fusion (receptor, UniProt Q9SSM7 1-209)
chain: MNLAPIHDPSSSSTTTTSSSTPYGLTKDEFSTLDSIIRTHHTFPRSPNTCTSLIAHRVDAPAHAIWRFVRDFANPNKYKHFIKSCTIRVNGNGIKEIKVGTIREVSVVSGLPASTSVEILEVLDEEKRILSFRVLGGEHRLNNYRSVTSVNEFVVLEKDKKKRVYSVVLESYIVDIPQGNTEEDTRMFVDTVVKSNLQNLAVISTASPT
B3: RCAR6, two-hybrid fusion (receptor, UniProt Q9FJ49 1-159)
chain: MKTSQEQHVCGSTVVQTINAPLPLVWSILRRFDNPKTFKHFVKTCKLRSGDGGEGSVREVTVVSDLPASFSLERLDELDDESHVMVISIIGGDHRLVNYQSKTTVFVAAEEEKTVVVESYVVDVPEGNTEEETTLFADTIVGCNLRSLAKLSEKMMELT
B4: RCAR5, two-hybrid fusion (receptor, UniProt Q9FJ50 1-161)
chain: METSQKYHTCGSTLVQTIDAPLSLVWSILRRFDNPQAYKQFVKTCNLSSGDGGEGSVREVTVVSGLPAEFSRERLDELDDESHVMMISIIGGDHRLVNYRSKTMAFVAADTEEKTVVVESYVVDVPEGNSEEETTSFADTIVGFNLKSLAKLSERVAHLKL
B5: RCAR9, two-hybrid fusion (receptor, UniProt Q8S8E3 1-215)
chain: MPTSIQFQRSSTAAEAANATVRNYPHHHQKQVQKVSLTRGMADVPEHVELSHTHVVGPSQCFSVVVQDVEAPVSTVWSILSRFEHPQAYKHFVKSCHVVIGDGREVGSVREVRVVSGLPAAFSLERLEIMDDDRHVISFSVVGGDHRLMNYKSVTTVHESEEDSDGKKRTRVVESYVVDVPAGNDKEETCSFADTIVRCNLQSLAKLAENTSKFS
B6: RCAR14, two-hybrid fusion (receptor, UniProt O80992 1-190)
chain: MSSSPAVKGLTDEEQKTLEPVIKTYHQFEPDPTTCTSLITQRIHAPASVVWPLIRRFDNPERYKHFVKRCRLISGDGDVGSVREVTVISGLPASTSTERLEFVDDDHRVLSFRVVGGEHRLKNYKSVTSVNEFLNQDSGKVYTVVLESYTVDIPEGNTEEDTKMFVDTVVKLNLQKLGVAATSAPMHDDE
B7: RCAR1, two-hybrid fusion (receptor, UniProt Q84MC7 1-187)
chain: MMDGVEGGTAMYGGLETVQYVRTHHQHLCRENQCTSALVKHIKAPLHLVWSLVRRFDQPQKYKPFVSRCTVIGDPEIGSLREVNVKSGLPATTSTERLELLDDEEHILGIKIIGGDHRLKNYSSILTVHPEIIEGRAGTMVIESFVVDVPQGNTKDETCYFVEALIRCNLKSLADVSERLASQDITQ
B8: RCAR8, two-hybrid fusion (receptor, UniProt Q9FLB1 1-203)
chain: MRSPVQLQHGSDATNGFHTLQPHDQTDGPIKRVCLTRGMHVPEHVAMHHTHDVGPDQCCSSVVQMIHAPPESVWALVRRFDNPKVYKNFIRQCRIVQGDGLHVGDLREVMVVSGLPAVSSTERLEILDEERHVISFSVVGGDHRLKNYRSVTTLHASDDEGTVVVESYIVDVPPGNTEEETLSFVDTIVRCNLQSLARSTNRQ
B9: SnRK2.2, two-hybrid fusion (enzyme, UniProt Q39192 1-362)
chain: MDPATNSPIMPIDLPIMHDSDRYDFVKDIGSGNFGVARLMTDRVTKELVAVKYIERGEKIDENVQREIINHRSLRHPNIVRFKEVILTPSHLAIVMEYAAGGELYERICNAGRFSEDEARFFFQQLISGVSYCHAMQICHRDLKLENTLLDGSPAPRLKICDFGYSKSSVLHSQPKSTVGTPAYIAPEILLRQEYDGKLADVWSCGVTLYVMLVGAYPFEDPQEPRDYRKTIQRILSVTYSIPEDLHLSPECRHLISRIFVADPATRITIPEITSDKWFLKNLPGDLMDENRMGSQFQEPEQPMQSLDTIMQIISEATIPTVRNRCLDDFMADNLDLDDDMDDFDSESEIDVDSSGEIVYAL
B10: SnRK2.3, two-hybrid fusion (enzyme, UniProt Q39193 1-361)
chain: MDRAPVTTGPLDMPIMHDSDRYDFVKDIGSGNFGVARLMRDKLTKELVAVKYIERGDKIDENVQREIINHRSLRHPNIVRFKEVILTPTHLAIIMEYASGGELYERICNAGRFSEDEARFFFQQLLSGVSYCHSMQICHRDLKLENTLLDGSPAPRLKICDFGYSKSSVLHSQPKSTVGTPAYIAPEVLLRQEYDGKIADVWSCGVTLYVMLVGAYPFEDPEEPRDYRKTIQRILSVKYSIPDDIRISPECCHLISRIFVADPATRISIPEIKTHSWFLKNLPADLMNESNTGSQFQEPEQPMQSLDTIMQIISEATIPAVRNRCLDDFMTDNLDLDDDMDDFDSESEIDIDSSGEIVYAL
B11: RCAR10, two-hybrid fusion (receptor, UniProt O80920 1-207)
chain: MLAVHRPSSAVSDGDSVQIPMMIASFQKRFPSLSRDSTAARFHTHEVGPNQCCSAVIQEISAPISTVWSVVRRFDNPQAYKHFLKSCSVIGGDGDNVGSLRQVHVVSGLPAASSTERLDILDDERHVISFSVVGGDHRLSNYRSVTTLHPSPISGTVVVESYVVDVPPGNTKEETCDFVDVIVRCNLQSLAKIAENTAAESKKKMSL
B12: RCAR3, two-hybrid fusion (receptor, UniProt Q9FGM1 1-188)
chain: MEANGIENLTNPNQEREFIRRHHKHELVDNQCSSTLVKHINAPVHIVWSLVRRFDQPQKYKPFISRCVVKGNMEIGTVREVDVKSGLPATRSTERLELLDDNEHILSIRIVGGDHRLKNYSSIISLHPETIEGRIGTLVIESFVVDVPEGNTKDETCYFVEALIKCNLKSLADISERLAVQDTTESRV
B13: SnRK2.9, two-hybrid fusion (enzyme, UniProt O64812 1-339)
chain: MEKYEMVKDLGFGNFGLARLMRNKQTNELVAVKFIDRGYKIDENVAREIINHRALNHPNIVRFKEVVLTPTHLGIVMEYAAGGELFERISSVGRFSEAEARYFFQQLICGVHYLHALQICHRDLKLENTLLDGSPAPRLKICDFGYSKSSVLHSNPKSTVGTPAYIAPEVFCRSEYDGKSVDVWSCGVALYVMLVGAYPFEDPKDPRNFRKTVQKIMAVNYKIPGYVHISEDCRKLLSRIFVANPLHRSTLKEIKSHAWFLKNLPRELKEPAQAIYYQRNVNLINFSPQRVEEIMKIVGEARTIPNLSRPVESLGSDKKDDDEEEYLDANDEEWYDDYA
B14: SnRK2.7, two-hybrid fusion (enzyme, UniProt Q9SMQ4 1-350)
chain: MERYDILRDLGSGNFGVAKLVREKANGEFYAVKYIERGLKIDEHVQREIINHRDLKHPNIIRFKEVFVTPTHLAIVMEYAAGGELFERICNAGRFSEDEGRYYFKQLISGVSYCHAMQICHRDLKLENTLLDGSPSSHLKICDFGYSKSSVLHSQPKSTVGTPAYVAPEVLSRKEYNGKIADVWSCGVTLYVMLVGAYPFEDPEDPRNIRNTIQRILSVHYTIPDYVRISSECKHLLSRIFVADPDKRITVPEIEKHPWFLKGPLVVPPEEEKCDNGVEEEEEEEEKCRQSVEEIVKIIEEARKGVNGTDNNGGLGLIDGSIDLDDIDDADIYDDVDDDEERNGDFVCAL

The first assay deals with T1, PIA1 (clade F PP2C protein phosphatase), BD-PIA1 two-hybrid fusion (Arabidopsis thaliana). Kind of assay: two-hybrid; yeast AH109, BD-PIA1 as bait; no exogenous ABA; growth on selection media after SD/-Trp/-Leu, SD/-Trp/-Leu/-His with 3-AT, X-alpha-Gal staining; 28 °C.
B1: the binding result is on record as “no binding”.

For B2, the binding result was “no binding”.

On to B3, for which the binding entry was “no binding”.

As to B4, the binding entry is “no binding”.

Turning to B5, the binding entry was “no binding”.

For B6, the binding entry was “no binding”.

Consider B7, for which the binding result is recorded as “binds”.

As to B8, the binding result was “no binding”.

For B9, the binding result is listed as “no binding”.

On to B10, for which the binding result is listed as “no binding”.

As to B11, the binding result was “no binding”.

With B12, the binding entry is listed as “no binding”.

On to B13, for which the binding entry was “binds”.

B14: the binding entry is recorded as “no binding”.

A further assay has the same target. As to the kind of experiment: two-hybrid; yeast AH109, BD-PIA1 as bait; in the presence of ABA; growth on selection media; 28 °C.
For B7, the binding entry is given as “binds”.

Turning to B13, the binding result is reported as “binds”.
